Measured values: PubChem BioAssay AID624296 (National Center for Advancing Translational Sciences (NCATS), 2012)
Among all 350,000 compounds or so, about 9,900 (2.8%) were called active. The inconclusive results got no clear call from the source; some entries with a clear call stand among them for comparison. Calls come from the whole dose curve; as a rule, active = well fitted activation curve with a large enough effect; inconclusive = small, poorly fitted or top-dose-only effect; inactive = no such curve, though single readings can be large or run the other way. Potencies of inconclusive entries are left out as doubtful fits.

Test: A quantitative high throughput screen for small molecules that induce DNA re-replication in MCF 10a normal breast cells. Note: nearly all actives have a fitted effect of over 50% in size.
Details: MCF 10A DNA re-replication, Hoechst nuclear intensity, 48 h; series mostly up to 46.1 µM
Potency is the fitted concentration of half-maximal effect; tags give direction and shape of the fitted curve.

Structure (SMILES) | Potency
COc1ccc(-c2nc(N/N=C(\C)c3ccc(O)cc3)c3ccccc3n2)cc1 | inconclusive [activator, single point]
CCCSCCCNC(=O)CC1Oc2ccccc2NC1=O (configuration not stated) | inconclusive [activator, partial curve, poor fit]
Cc1nc(Nc2cccc(Cl)c2)c2oc3ccccc3c2n1 | inconclusive [activator, single point]
C[C@@H]1C(=O)O[C@@H]2[C@H](O)C34[C@H]5C[C@@H](C(C)(C)C)C36[C@H](OC(=O)[C@@H]6O)OC4(C(=O)O5)[C@@]12O (some centres not stated) | inconclusive [activator, partial curve, poor fit]
O=C1OCC2=C1C(c1ccc(F)cc1)c1cc3c(cc1N2)OCO3 (configuration not stated) | inconclusive [activator, full curve, poor fit]
CC1CC(OCC(O)CN2CCCCC2C)CC(C)(C)C1 (configuration not stated) | inconclusive [activator, single point]
Cc1cccc(C)c1N=Nc1c(C)cc(O)cc1C | inconclusive [activator, single point]
CCCc1cc2c(=O)c(-c3ccc4c(c3)OCCO4)coc2cc1OS(C)(=O)=O | inconclusive [activator, partial curve, poor fit]
O=C(COC(=O)c1ccccc1Nc1ccc(SC(F)F)cc1)NC1CC1 | inconclusive [activator, partial curve]
Cc1nn(Cc2ccc(C(=O)Nc3ccc(C(=O)OC(C)C)cc3)o2)c(C)c1Cl | inconclusive [activator, partial curve, poor fit]
Cc1ccc(S(=O)(=O)NC(C)(C)CN2CCNCC2)cc1 | inconclusive [activator, single point]
Cc1ccc(-c2cc(C(=O)N3CCN(c4ncccn4)CC3)c3ccccc3n2)cc1 | inconclusive [activator, single point]
N#Cc1c(NCCN)nc(-c2ccco2)c2c1CCCC2 | active: 11.6 µM
COc1ccc(-c2cc(C(=O)OCC(=O)N3CCOCC3)c3ccccc3n2)cc1 | active: 16.4 µM
C=CC1=C2C=C(C3CC3)N(CCCN(CC)CC)C=C2C(=O)C(C)(OC(=O)c2ccco2)C1=O (configuration not stated) | inconclusive [activator, full curve, poor fit]
O=C(C1=C[C@@H](c2coc3ccccc3c2=O)C[C@@H](OCCCCO)O1)N1CCN(Cc2ccccc2)CC1 | inconclusive [activator, partial curve, poor fit]
O=[N+]([O-])c1ccc(Cl)c(S(=O)(=O)Nc2cccc(-c3ccc(N4CCOCC4)nn3)c2)c1 | inconclusive [activator, partial curve, poor fit]
CC(C)c1ccc(NC(=O)C2CCN(c3ncnc4c3nc3n4CCCCC3)CC2)cc1 | active: 16.4 µM
O=C(O)/C=C/C(=O)Nc1ccc(OC(F)(F)F)cc1Br | inactive
CCCCN(CC)S(=O)(=O)c1ccc(C(=O)N=c2sc3cc(NC(C)=O)ccc3n2C)cc1 | active: 10.3 µM
COc1ccc(S(=O)(=O)N2CCC(NC(=O)N3CCOCC3)CC2)cc1 | inactive
O=C1/C(=C/c2ccccn2)SC(=S)N1c1ccc(O)cc1 | inconclusive [activator, single point]
CCOc1ccc(NC(=O)c2ccccc2C(=O)c2ccccc2)cc1OCC | inactive

Structure (SMILES) | Potency
COCCNCCCOc1ccc(Cl)cc1Br | inactive
Cc1c(C)n(CCC#N)c2ccccc12 | inconclusive [activator, partial curve, poor fit]
COc1ccc(NS(=O)(=O)c2ccc(O)c(C(=O)OCC(=O)Nc3ccc4c(c3)OCCO4)c2)cc1 | inconclusive [activator, partial curve, poor fit]
OC(CCN1CCCCC1)(c1ccccc1)C1C[C@@H]2C=C[C@H]1C2 (some centres not stated) | inconclusive [activator, partial curve, poor fit]
Cc1cc(C)nc(NS(=O)(=O)c2ccc(N/C=C/C(=O)c3ccc(Cl)c(Cl)c3)cc2)n1 | inconclusive [activator, full curve]
Cc1c(C(=O)Nc2ccccc2)oc2c1C(=O)CC(C)(C)C2 | inconclusive [activator, partial curve, poor fit]
Fc1ccccc1CNC(=S)Nc1ccc(Cl)cc1 | inconclusive [activator, partial curve]
O=C(CCc1ccncc1)NC1CCCc2c1cnn2-c1ccc(F)cc1F (configuration not stated) | inactive
CCOC(=O)c1sc(NC(=O)c2ccccc2)cc1C | inactive
C=C1C(=CC=C2CCC[C@@]3(C)[C@@H]2CC[C@H]3[C@H](C)CCCC(C)C)C[C@@H](O)C[C@@H]1O | inconclusive [activator, full curve]
Cc1ccc(OC/C(O)=C(\C#N)c2nc3ccccc3s2)cc1 | inconclusive [activator, full curve, poor fit]
CCOC(=O)C1CCCN(Cc2nc(N)nc(Nc3ccccc3OC)n2)C1 (configuration not stated) | inactive
Cn1cncc1C#Cc1c(-c2ccsc2)sc2ccccc12 | inconclusive [activator, single point]
COC(=O)c1cc2cc(Cl)ccc2nc1SC | inactive
COc1ccc2oc(C)c(C(N)=O)c2c1 | inactive
O=C(CCN1C(=O)/C(=C/c2ccccc2Cl)SC1=S)NCCc1ccc(O)cc1 | inconclusive [activator, partial curve]
Cc1nn(-c2cccc(Cl)c2)c2nc(-c3ccco3)cc(C(=O)O)c12 | active: 14.6 µM
O=C(CCCN1CCc2[nH]c3ccc(F)cc3c2C1)c1ccc(F)cc1 | inconclusive [activator, single point]
CN1CCN(CC/C=C2/c3ccccc3Sc3ccc(S(=O)(=O)N(C)C)cc32)CC1 | inconclusive [activator, single point]
C[C@@]12C(=O)Nc3cc(F)ccc3C(=O)N1[C@H]1c3cc(Br)ccc3OC[C@@H]1[C@@H]2c1ccccc1 | active: 7.31 µM
O=C(Cn1cnc2c(cnn2-c2ccc(F)cc2)c1=O)NCCc1ccccc1 | inconclusive [activator, partial curve, poor fit]
O=C(Nc1ccccc1)c1ccc(S(=O)(=O)Nc2cccc(O)c2)cc1 | inconclusive [activator, partial curve, poor fit]
Brc1ccc(OCCCCCN2CCOCC2)cc1 | inconclusive [activator, partial curve]

Structure (SMILES) | Potency
O=C(NC1CCCCCC1)c1c(O)nc2sccn2c1=O | inactive
CCC(=O)c1cc2c(cc1NC(=O)c1ccccc1)OCCO2 | inconclusive [activator, partial curve, poor fit]
CCOC(=O)CSc1ncnc2c1cnn2-c1ccc(Cl)cc1 | inconclusive [activator, full curve, poor fit]
COc1ccc(C(=O)N2CCCCCCC2)cc1OC1CCN(C(C)C)CC1 | inconclusive [activator, partial curve, poor fit]
CC1=C(C(=O)OCc2ccccc2)C(c2ccc3ccccc3c2)NC(=O)N1CCCC(=O)O (configuration not stated) | inactive
O=C(O)C1C2C=CC(C2)C1C(=O)NCCC1=CCCCC1 (configuration not stated) | inconclusive [activator, partial curve, poor fit]
CCOC(=O)c1cc(C(C)=O)n2ccccc12 | inactive
Oc1ccccc1/C=N/Nc1ccccc1 | inconclusive [activator, single point]
CN(c1ccccc1)S(=O)(=O)c1cccc(C(=O)NCC(=O)Nc2ccc(F)c(F)c2F)c1 | inactive
CC1CCN(CC(O)COc2ccc(C(=O)c3ccccc3)cc2)CC1 (configuration not stated) | inconclusive [activator, partial curve, poor fit]
C=C(C)COc1ccc(-c2ncncc2-c2ccc(Br)cc2)c(O)c1 | inconclusive [activator, single point]
CCc1cccc(NC(=O)Cn2ncn3c(cc4ccccc43)c2=O)c1 | inconclusive [activator, full curve, poor fit]
Cc1nc(C)n(C(Oc2ccc(Cl)cc2Cl)C(=O)C(C)(C)C)n1 (configuration not stated) | inconclusive [activator, full curve, poor fit]
CCOc1ccccc1-c1nc(-c2cc3ccccc3nc2OC)no1 | inconclusive [activator, partial curve]
COc1ccc(-c2nn(-c3ccccc3)cc2C(=O)NCCCn2ccnc2)cc1 | inconclusive [activator, single point]
CCOC(=O)c1c(NC(=O)CCl)sc(C(=O)N(CC)CC)c1C | inconclusive [activator, single point]
CCOC(=O)C1(Cc2ccccc2)CCN(Cc2ccc(C3CCCCO3)s2)CC1 (configuration not stated) | active: 16.4 µM
CCCC(=O)Nc1cc(Cl)ccc1C | inconclusive [activator, full curve, poor fit]
CC(C)CNC(=S)NNC(=O)c1csc2c1CCCC2 | inactive
CCOC(=O)c1cc2c(=O)n3ccccc3nc2n(CCOC)c1=NC(=O)C(C)(C)C | inactive
COc1cc(CN2CCN(C3CCC3)CC2CCO)cc(OC)c1 (configuration not stated) | inconclusive [activator, partial curve, poor fit]
